{"source": "PubChem BioAssay AID328", "about": "(DTP/NCI, 2004)", "test_system": "BDF1 mice, P388 leukemia ip, median survival T/C", "test": "NCI In Vivo Anticancer Drug Screen. Data for tumor model P388 Leukemia (intraperitoneal) in B6D2F1 (BDF1) mice", "details": "endpoint: median survival time, higher = longer survival", "outline": "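Transplantable tumour in mice; compound vs vehicle dosing; survival scored; ratio of treated to control reported.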", "note": "Toxic doses and inconclusive results are not listed. Certain results were filed several times, with different values. They are shown here; other results are not. The source may hold further records. Values given together repeat one measurement in other runs, samples, wells, individuals or studies. Starred links: 1 amine or outer side, 2 acyl side, 3 side chain; linkers in the order of their positions; H or OH if unused. Positions of bridges follow the written chain, without caps; N, C: chain ends. Non-standard residues stand in square brackets, D forms with d. Residues, ends and D or L forms follow the SMILES beside them. Chains are numbered I, II in the order given. ξ: configuration not given here. Actinocin(9to1) = Cc1c2oc3c(C)ccc(C(=O)[*:1])c3nc-2c(C(=O)[*:2])c(N)c1=O; ξPro(4ξ-Me) = CC1CNC(C(=O)O)C1; NMeV = CN[CH](C(=O)O)C(C)C; Sar = CNCC(=O)O"}
{"smiles": "CC1=CC2=C(C=O)C(=O)[C@](C)(O)[C@@H](O)C2=CO1", "values": [{"measurement": "T/C", "setting": "dose: 100.0 mg/kg/injection, schedule: Q04DX003 (ip), vehicle: saline with Tween-80", "result": "104 % of control and 150 % of control"}]}
{"smiles": "C[N+]1(C)CCCCC1", "values": [{"measurement": "T/C", "setting": "dose: 50.0 mg/kg/injection, schedule: Q01DX009 (ip), vehicle: saline", "result": "96 % of control and 545 % of control"}]}
{"smiles": "CCOC(=O)C1C(=O)C(CN(CCCl)CCCl)C(=O)C(C(=O)OCC)C1c1ccc(O)cc1", "note": "(configuration not stated)", "values": [{"measurement": "T/C", "setting": "dose: 50.0 mg/kg/injection, schedule: Q04DX003 (ip), vehicle: saline with Tween-80", "result": "86 % of control and 269 % of control"}]}
{"smiles": "NC(=O)C(Br)CBr", "note": "(configuration not stated)", "values": [{"measurement": "T/C", "setting": "dose: 6.0 mg/kg/injection, schedule: Q01DX009 (ip), vehicle: saline with Tween-80", "result": "103 % of control and 151 % of control"}]}
{"smiles": "CC1=[N+](C)C(C)(C)CC(C)O1", "note": "(configuration not stated)", "values": [{"measurement": "T/C", "setting": "dose: 25.0 mg/kg/injection, schedule: Q01DX009 (ip), vehicle: saline", "result": "88 % of control and 200 % of control"}]}
{"smiles": "[O-][n+]1c(CN2CCCCC2)nc2cccc3c2c1-c1ccccc1-3", "values": [{"measurement": "T/C", "setting": "dose: 100.0 mg/kg/injection, schedule: Q01DX009 (ip), vehicle: saline with Tween-80", "result": "121 % of control, 123 % of control, 158 % of control"}, {"measurement": "T/C", "setting": "dose: 200.0 mg/kg/injection, schedule: Q01DX009 (ip), vehicle: Klucel (hydroxypropylcellulose) (HPC)", "result": "91 % of control and 159 % of control"}]}
{"smiles": "CC(=O)N(O)c1ccc(Cl)cc1", "values": [{"measurement": "T/C", "setting": "dose: 100.0 mg/kg/injection, schedule: Q04DX002 (ip), vehicle: saline with Tween-80", "result": "86 % of control, 114 % of control, 154 % of control"}]}
{"smiles": "COc1cccc2c1C(=O)c1c(O)c3c(c(O)c1C2=O)C[C@@](O)(C(C)=O)C[C@@H]3OC1CC(N)C(O)C(C)O1", "note": "(some centres not stated)", "values": [{"measurement": "T/C", "setting": "dose: 0.25 mg/kg/injection, schedule: Q## X020 (ip), vehicle: saline", "result": "100 % of control and 179 % of control"}, {"measurement": "T/C", "setting": "dose: 1.25 mg/kg/injection, schedule: Q01DX001 (ip), vehicle: saline", "result": "100 % of control and 170 % of control"}, {"measurement": "T/C", "setting": "dose: 2.5 mg/kg/injection, schedule: Q01DX010 (ip), vehicle: saline", "result": "118 % of control and 185 % of control"}, {"measurement": "T/C", "setting": "dose: 5.0 mg/kg/injection, schedule: Q01DX001 (ip), vehicle: saline", "result": "118 % of control and 180 % of control"}, {"measurement": "T/C", "setting": "dose: 10.0 mg/kg/injection, schedule: Q01DX001 (ip), vehicle: saline", "result": "118 % of control and 175 % of control"}]}
{"smiles": "CN(N=O)C(=O)NC(N)=O", "values": [{"measurement": "T/C", "setting": "dose: 3.6 mg/kg/injection, schedule: Q01DX009 (ip), vehicle: saline", "result": "119 % of control and 161 % of control"}]}
{"smiles": "O=NN(CCCl)C(=O)N[C@@H]1CCCC[C@H]1NC(=O)N(CCCl)N=O", "values": [{"measurement": "T/C", "setting": "dose: 50.0 mg/kg/injection, schedule: Q01DX009 (ip), vehicle: Klucel (hydroxypropylcellulose) (HPC)", "result": "108 % of control and 170 % of control"}]}
{"smiles": "ClCCN(CCCl)CCCN1c2ccccc2Sc2ccccc21", "values": [{"measurement": "T/C", "setting": "dose: 6.25 mg/kg/injection, schedule: Q04DX003 (ip), vehicle: saline with Tween-80", "result": "118 % of control and 161 % of control"}]}
{"smiles": "NNC(=O)[C@H]1CC[C@H]1C(=O)NN", "values": [{"measurement": "T/C", "setting": "dose: 100.0 mg/kg/injection, schedule: Q01DX009 (ip), vehicle: saline", "result": "118 % of control and 150 % of control"}]}
{"smiles": "Cc1c2oc3c(C)ccc(C(=O)NC4C(=O)NC(C(C)C)C(=O)N5CC(C)CC5C(=O)N(C)CC(=O)N(C)C(C(C)C)C(=O)OC4C)c3nc-2c(C(=O)NC2C(=O)NC(C(C)C)C(=O)N3CC(C)CC3C(=O)N(C)CC(=O)N(C)C(C(C)C)C(=O)OC2C)c(N)c1=O", "note": "(configuration not stated) (I: TV[ξPro(4ξ-Me)][Sar][NMeV] / II: TV[ξPro(4ξ-Me)][Sar][NMeV]; ester I:1-I:C, II:1-II:C; linker I:N-II:N via Actinocin(9to1); configuration not given here)", "values": [{"measurement": "T/C", "setting": "dose: 1440.0 micrograms/kg/injection, schedule: Q04DX003 (ip), vehicle: saline + alcohol", "result": "100 % of control and 160 % of control"}]}
{"smiles": "C[n+]1c(-c2ccccc2)c2cc(N)ccc2c2ccccc21", "values": [{"measurement": "T/C", "setting": "dose: 15.0 mg/kg/injection, schedule: Q01DX009 (ip), vehicle: saline", "result": "100 % of control and 161 % of control"}]}
{"smiles": "CC1CN1C(=O)c1cc(C(=O)N2CC2C)cc(C(=O)N2CC2C)c1", "note": "(configuration not stated)", "values": [{"measurement": "T/C", "setting": "dose: 25.0 mg/kg/injection, schedule: Q01DX009 (ip), vehicle: saline with Tween-80", "result": "122 % of control and 150 % of control"}]}
{"smiles": "COc1cc2c(c(OC)c1OC)-c1cc(I)c(O)cc1[C@@H](NC(C)=O)CC2", "values": [{"measurement": "T/C", "setting": "dose: 44.0 mg/kg/injection, schedule: Q04DX003 (ip), vehicle: saline with Tween-80", "result": "110 % of control and 200 % of control"}]}
{"smiles": "CC(CN1CC(=O)NC(=O)C1)N1CC(=O)NC(=O)C1", "note": "(configuration not stated)", "values": [{"measurement": "T/C", "setting": "dose: 15.0 mg/kg/injection, schedule: Q01DX010 (ip), vehicle: saline", "result": "100 % of control and 190 % of control"}]}
{"smiles": "[N-]=[N+]=CC(=O)NCC(=O)NN", "values": [{"measurement": "T/C", "setting": "dose: 400.0 mg/kg/injection, schedule: Q01DX010 (ip), vehicle: water", "result": "90 % of control and 200 % of control"}]}
{"smiles": "COc1cc2c(cc1OC)C(OC)N(C)c1c-2ccc2cc3c(cc12)OCO3", "note": "(configuration not stated)", "values": [{"measurement": "T/C", "setting": "dose: 200.0 mg/kg/injection, schedule: Q04DX002 (ip), vehicle: Klucel (hydroxypropylcellulose) (HPC)", "result": "101 % of control and 181 % of control"}]}
{"smiles": "ClC(Cl)(Cl)c1ccc(C(Cl)(Cl)Cl)cc1", "values": [{"measurement": "T/C", "setting": "dose: 50.0 mg/kg/injection, schedule: Q04DX003 (ip), vehicle: Klucel (hydroxypropylcellulose) (HPC)", "result": "92 % of control and 150 % of control"}]}
{"smiles": "COc1cc(C)c(C2NC(=O)c3ccccc3N2)cc1C", "note": "(configuration not stated)", "values": [{"measurement": "T/C", "setting": "dose: 100.0 mg/kg/injection, schedule: Q01DX009 (ip), vehicle: Klucel (hydroxypropylcellulose) (HPC)", "result": "104 % of control and 150 % of control"}]}
{"smiles": "O=C1OC(=O)c2c(Br)c(Br)c(Br)c(Br)c21", "values": [{"measurement": "T/C", "setting": "dose: 37.5 mg/kg/injection, schedule: Q01DX009 (ip), vehicle: saline with Tween-80", "result": "90 % of control and 150 % of control"}]}
